# Assay results published in the supplement of paper PMC3334620.
# The full ranking holds about 33,000 sequences; the median of “E-score (-0.5 to 0.5)” is about -0.041, and the highest 2% start at about 0.37. The list shows a part of the results.
# Biological target: T1, Ecm22 (UniProt Q05958)
# T1 sequence: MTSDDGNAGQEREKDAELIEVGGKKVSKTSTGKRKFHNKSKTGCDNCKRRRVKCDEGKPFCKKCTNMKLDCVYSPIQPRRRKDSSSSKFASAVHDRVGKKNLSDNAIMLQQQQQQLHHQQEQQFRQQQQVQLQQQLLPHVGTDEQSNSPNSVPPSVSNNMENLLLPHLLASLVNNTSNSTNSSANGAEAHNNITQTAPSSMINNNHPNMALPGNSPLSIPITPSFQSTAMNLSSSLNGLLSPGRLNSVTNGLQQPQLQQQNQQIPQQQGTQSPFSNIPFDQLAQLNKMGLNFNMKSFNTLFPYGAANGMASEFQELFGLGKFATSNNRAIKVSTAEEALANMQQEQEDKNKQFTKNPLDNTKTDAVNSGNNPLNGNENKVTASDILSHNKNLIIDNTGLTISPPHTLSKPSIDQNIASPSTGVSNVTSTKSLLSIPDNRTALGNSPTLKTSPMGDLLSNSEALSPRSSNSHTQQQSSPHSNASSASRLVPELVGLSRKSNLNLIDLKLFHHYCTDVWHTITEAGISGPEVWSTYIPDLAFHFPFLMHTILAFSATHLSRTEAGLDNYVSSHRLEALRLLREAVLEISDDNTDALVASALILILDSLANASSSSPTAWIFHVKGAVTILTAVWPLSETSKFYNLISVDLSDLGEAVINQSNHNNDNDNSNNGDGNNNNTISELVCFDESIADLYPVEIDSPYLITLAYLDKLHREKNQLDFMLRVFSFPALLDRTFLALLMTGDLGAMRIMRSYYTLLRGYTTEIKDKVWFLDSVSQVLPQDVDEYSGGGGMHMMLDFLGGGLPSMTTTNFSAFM
# Test: PBM E-score (8-mer binding enrichment) (E-score (-0.5 to 0.5)); higher = stronger / more preferred TF binding; most listed sequences are background and not binding sites
# Conditions: protein concentration: 200 nM; construct: GST-full length
# Method: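 Universal 'all 10-mer' protein binding microarrays (Agilent AMADID 015681) probed with GST-tagged S. cerevisiae TFs (full-length or DBD) made by in vitro transcription/translation (PURExpress), about 100-200 nM. Bound TF was detected with fluorescent anti-GST. Each ungapped 8-mer (which stands for itself and its reverse complement) is scored by the PBM enrichment score (E-score), a modified Wilcoxon-Mann-Whitney statistic from -0.5 to +0.5, computed with the Universal PBM Analysis Suite. Scale: above 0.35 generally sequence-specific binding.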
row,Sequence,PBM E-score
1,ATATACAC,0.125
2,CTAAATAG,-0.157
3,GATCGGGA,0.0412
4,AGTCAATG,-0.0767
5,AGGGGAAG,-0.0801
6,CCTGTGTC,-0.165
7,CGTAGTAC,0.276
8,CCCCCGGC,-0.323
9,ATATGGAG,0.058
10,GATCCCGA,-0.0329
11,GTCCATCA,-0.219
12,AGGTCCCG,0.14
13,GTAAGGCA,-0.0585
14,CACGGCTG,-0.351
15,GTACCGAA,0.212
16,CGCACCAA,0.135
17,ACGAATTC,0.269
18,GGGATCGA,0.138
19,ACCGTACC,0.416
20,CTGGGAGA,-0.143
21,CAGCCCCC,-0.181
22,AGCTGGGG,-0.297
23,GGCTGAGA,-0.268
24,AAAAACAA,0.0897
25,CGTCCTCA,-0.127

row,Sequence,PBM E-score
1,GACAACTC,0.0211
2,ACCCCCTC,-0.274
3,CCATGGTC,-0.0723
4,ATGCAGAG,-0.159
5,ATGGCGAA,-0.0108
6,TCTCTGCA,-0.163
7,CGGGGATA,0.0242
8,CCACATCG,0.126
9,AAGTTGTA,0.112
10,CGATTATC,0.152
11,AAACAACA,-0.0804
12,ATAATTTG,0.0315
13,ACGCCACC,-0.0558
14,TCTGAAGA,-0.177
15,GCTCGATA,0.0339
16,AGATCTCA,-0.00483
17,CGGGGTCC,-0.139
18,GAGAACGA,0.422
19,AAGGGTCG,0.102
20,CGCATCCA,0.0265
21,GTAGTGAC,-0.103
22,GGCTGTAA,-0.0621
23,AGGCATTA,-0.148
24,CATCGACG,-0.0608
25,GCTTATGA,0.0131

row,Sequence,PBM E-score
1,GGCCATGA,-0.143
2,GTTGTACA,0.0399
3,GCCGTTGA,-0.138
4,ACGACGCT,0.38
5,GCTCGAGA,-0.122
6,CCCGTTAA,0.256
7,ACAATAAA,-0.0297
8,ATAGCTAC,0.0664
9,AACATTGG,-0.346
10,ACTGTCAC,-0.0424
11,CAGGGTTA,-0.161
12,AGACATCA,-0.199
13,AGGTGTTA,-0.14
14,CGACGTCC,0.17
15,ACCGTAAG,0.212
16,CCGCGGGA,-0.0893
17,CAAAAGTA,-0.0653
18,AAGTCTCG,0.236
19,ATGGGCTA,-0.142
20,CCGGAGGA,-0.171
21,ACTAACTA,0.0677
22,AGTTGGGC,-0.0308
23,GGTTTTTA,-0.102
24,GACCGAAA,0.122
25,CTCTCCAA,-0.0556

row,Sequence,PBM E-score
1,ATGGCACA,-0.179
2,CCGTTGAG,-0.262
3,TCTTTTAA,0.0278
4,AGGCGGTG,-0.1
5,CAGCCCTC,-0.11
6,CCTCTGCA,-0.0882
7,ACTAGCCG,-0.0608
8,TCATGCCA,-0.0357
9,CTATGGCA,-0.179
10,CGCTGAGC,-0.0955
11,CCTACGAC,0.232
12,TCGTAAAA,0.476
13,ACACGGCC,-0.139
14,CCAACCAA,-0.0915
15,CTAATCGC,-0.0155
16,CGAGAAAA,0.183
17,CAGCCACC,-0.124
18,GTGAGGTA,-0.156
19,CTCAGACC,-0.272
20,AGTAATAT,0.184
21,CACAAAAG,-0.00092
22,CAGGGCTC,-0.219
23,GCGAGGCA,0.296
24,TATGAACA,0.00828
25,AAGACGCT,-0.0823

row,Sequence,PBM E-score
1,ATTTAATA,0.104
2,AAATGGAA,-0.19
3,AAGAAGCA,-0.162
4,GCGCTACC,-0.0587
5,TTATCAAA,0.0809
6,ACTCGAAT,0.0074
7,CGTAGCGA,0.382
8,CACACGAG,0.169
9,ATTTTGTA,0.0586
10,AAACACGA,0.174
11,ATTCTCCG,0.0746
12,AGATTATA,0.00651
13,CAGCTTCA,-0.0873
14,TCAGCGAA,0.0118
15,ATTGCGGA,-0.0857
16,CCGCAAGG,-0.0036
17,CTAACGCA,-0.0321
18,GAGTCCAC,-0.165
19,AGTCTGAC,-0.132
20,GATGGCAC,-0.00986
21,AAAACTGA,-0.157
22,CGCGACCA,0.212
23,GGTGGGTA,-0.0878
24,ATCCTTCG,0.157
25,CACGATTA,0.1

row,Sequence,PBM E-score
1,AGTCGTTC,0.425
2,AGATGGAT,-0.344
3,CACCTCGA,0.126
4,ACTCAAAA,0.014
5,CCTGCGCC,-0.243
6,ATTCTTAC,-0.026
7,CCCAGGTC,-0.218
8,ATTAGAGG,-0.277
9,TCACTGAA,-0.101
10,AAAACTCG,0.182
11,CATCTCTC,-0.101
12,CCCCAGAC,-0.213
13,ACGCAACG,0.308
14,ATATAGAC,0.0182
15,CACCGTAA,0.277
16,AGAACGGA,0.0615
17,AGTCCGAC,-0.141
18,ATGGAGAA,-0.0758
19,GGAAATAC,0.11
20,AGCGTTAC,0.0657
21,CTGTCAGA,-0.0438
22,CCTCGACA,-0.113
23,CTACAGTA,-0.0824
24,ATCCGTAG,-0.0249
25,TAAGATGA,-0.197

row,Sequence,PBM E-score
1,CTGCAATC,-0.0831
2,GACAATAC,0.0828
3,GGCAACGA,0.417
4,CGAAGGGA,0.0402
5,CGGTCTCC,-0.0719
6,ACGATACG,0.383
7,CTAGTCCA,-0.328
8,CCCGACCG,0.168
9,GAATCGGA,0.141
10,AGTTTGAT,0.0234
11,CAAAGTGA,0.00568
12,CAACCCCA,-0.125
13,CAGACACC,-0.162
14,AGACGTAT,0.181
15,GGCGCACC,0.0764
16,CCAAACCA,-0.234
17,AGTGATCA,0.00502
18,GTTATTAA,0.168
19,AACTGCAG,-0.0539
20,AACGCGAG,0.231
21,TAGGATCA,0.0345
22,AAACACTT,0.0131
23,ATGTCAAA,-0.00618
24,GACACTTA,-0.0575
25,GCTGCAGA,0.0524

row,Sequence,PBM E-score
1,GCAACCCA,-0.121
2,GCCCCGGA,-0.0734
3,ACACGCAA,0.0485
4,AGTAGTGG,-0.177
5,CGGGTCTA,0.0514
6,ACTGACCC,-0.217
7,ACATGTCA,-0.237
8,AGGCGGGC,-0.204
9,AATTAGAA,-0.051
10,ATAAAGGC,-0.108
11,ACCCGTAC,0.374
12,AGAACTCA,-0.107
13,CTTGAAGC,-0.181
14,GAACTCAC,0.00794
15,ATAGGCGC,0.0231
16,ATTCCAGC,-0.149
17,ACCCCTAG,-0.186
18,ACGTATAA,0.412
19,CCCCGTCA,-0.221
20,AGTCTTCC,-0.216
21,GAATTTGC,-0.123
22,GGTGAGAC,-0.232
23,CGGATGCA,-0.154
24,AGGAAAGC,-0.00904
25,ACTAAAGT,-0.187

row,Sequence,PBM E-score
1,CGACAATC,0.116
2,AGCACCAC,-0.203
3,CATAAAGA,-0.0522
4,CTACGAAA,0.302
5,GCCGTGCC,-0.0282
6,TCAGTACA,0.0565
7,AATACCGT,0.197
8,CTCTGACA,-0.113
9,AACTGCAA,-0.138
10,ATGTTCCC,-0.0758
11,CACCGTGC,-0.0452
12,CCGCGGAA,0.0414
13,CCCGGACC,-0.0633
14,CTAGAGTA,-0.132
15,CTCCCTCA,-0.162
16,AACCCTTC,0.0412
17,ATCAATAG,-0.12
18,AATTCGTC,0.0772
19,AAATGGGG,-0.296
